28 compounds from paper PMC6919601, “Identification of Plasmodium dipeptidyl aminopeptidase allosteric inhibitors by high throughput screening” (PLoS ONE, 2019) can be followed below.

Screen size: about 110,000 compounds; about 230 (0.21%) showed an effect of 50% or more. The list shows a part of the results.
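Also: 30 min substrate incubation versus DMSO and 10 µM JCP410 controls.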

Sequence of DPAP1 (Q8IIJ9 whole entry, looked up): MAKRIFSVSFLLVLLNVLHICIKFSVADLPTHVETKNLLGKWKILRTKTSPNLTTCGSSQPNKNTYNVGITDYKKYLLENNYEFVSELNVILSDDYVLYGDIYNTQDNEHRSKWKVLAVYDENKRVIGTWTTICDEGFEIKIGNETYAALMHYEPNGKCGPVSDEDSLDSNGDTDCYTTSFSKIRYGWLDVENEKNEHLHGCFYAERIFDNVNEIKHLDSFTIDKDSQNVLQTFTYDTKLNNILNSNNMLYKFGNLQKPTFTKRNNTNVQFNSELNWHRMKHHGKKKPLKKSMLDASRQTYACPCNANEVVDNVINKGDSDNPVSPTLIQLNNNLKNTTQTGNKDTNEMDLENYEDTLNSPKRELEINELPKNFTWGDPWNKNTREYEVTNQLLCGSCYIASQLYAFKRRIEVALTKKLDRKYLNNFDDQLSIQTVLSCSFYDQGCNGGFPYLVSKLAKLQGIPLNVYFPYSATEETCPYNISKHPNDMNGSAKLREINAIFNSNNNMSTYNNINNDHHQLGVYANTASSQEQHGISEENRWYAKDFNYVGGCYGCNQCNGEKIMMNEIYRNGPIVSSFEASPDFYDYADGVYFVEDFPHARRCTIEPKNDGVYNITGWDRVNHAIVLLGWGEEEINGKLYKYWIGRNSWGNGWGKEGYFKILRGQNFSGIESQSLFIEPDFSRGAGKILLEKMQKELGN

The test has as its target DPAP1 (Plasmodium falciparum, UniProt Q8IIJ9). The test can be described thus: primary screen, percent inhibition; read by cleavage of a fluorogenic dipeptide substrate; higher = more effect of the substance. Set-up: species or system P. falciparum D10 trophozoite lysates; single well.
Take `COc1ccc(OC)c(CC2(NC(=O)c3ccccc3)N=C3C=C(C)C=CN3C2=O)c1` (stereo not shown): the “% Inhibition @ 10 uM” value is given as -6.01%.
With `COc1ccc(C(=O)Cn2c3ccccc3n3ncnc23)cc1`, the “% Inhibition @ 10 uM” value was found to be 3.06%.
Under `Cc1ccc2cc3cc(C(=O)NCCCN4CCN(Cc5ccccc5)CC4)oc3nc2c1` stands -1.54%; under `COc1ccc(C(=O)Nc2cc(C)on2)c(OC)c1`, 3.01%; under `COc1ccc(CC/N=C2/C=C(O)CC(C)(C)C2)cc1`, -2.68%.
Regarding `COc1ccccc1NS(=O)(=O)c1c(C)cc(C)cc1C`, the “% Inhibition @ 10 uM” value is -2.6%.
With `CCOC(=O)N1CCN(C(=O)c2cn(C)c(=O)c3cc(OC)c(OC)cc23)CC1`, the “% Inhibition @ 10 uM” value is recorded as -4.86%.
Under `Cc1cccc(-n2c(C)cc(/C=C3\C(=N)N4N=C(S(C)(=O)=O)SC4=NC3=O)c2C)c1C` stands 8.11%; under `CN(C1CCCCC1)S(=O)(=O)c1ccc(F)cc1`, 3.48%; under `CC1CCC(C(C)C)C(OCC(O)CN2CCCC(C)C2)C1` (stereo not shown), -8.19%.
Consider `C/C=C/C1(NCCc2ccccc2)CCCCC1`, for which the “% Inhibition @ 10 uM” value came out at 2.57%.
Under `COc1cccc(-c2nnc(SCC(=O)N3CCCC3)o2)c1` stands 1.3%.
As for `CCOc1ccc2nc(NC(=O)Nc3cccs3)sc2c1`, the “% Inhibition @ 10 uM” value is reported as -1.11%.
Under `CC1=C(C(=O)OCC2CCCCC2)C(c2ccc(F)cc2)NC(=O)N1` (stereo not shown) stands 3.61%; under `O=C(Cn1ncn2c(cc3sccc32)c1=O)N1CCCCCC1`, -9.07%.
`CC(C)OCCCn1c(=O)c2ccccc2n2c(CCC(=O)NCc3cccnc3)nnc12`: the “% Inhibition @ 10 uM” value was -1.44%.
In the case of `Cc1nnc(N2CCC(C(=O)N3CCN(c4ccccn4)CC3)CC2)c2nn(-c3ccccc3)c(C)c12`, the “% Inhibition @ 10 uM” value came out at 2.92%.
For `O=C(Nc1nc2nc3c(c(O)n2n1)CCC3)c1ccc(Cl)cc1`, the “% Inhibition @ 10 uM” value is on record as 0.401%.
Under `Cc1ccc(OCCn2c(N)nc3ccccc32)cc1` stands -0.996%.
Under `O=C1c2ccccc2C(=O)N1CN1CCN(Cc2ccc3c(c2)OCO3)CC1` stands 1.64%; under `CNC(=S)NCc1ccc2[nH]c3c(c2c1)CCCC3`, -0.138%.
In the case of `N#Cc1c(-c2cccc(Br)c2)cc(C2CC2)nc1N`, the “% Inhibition @ 10 uM” value is listed as 0.345%.
`CCCN(C)C(=O)c1c(O)nc2ccccc2c1O`: the “% Inhibition @ 10 uM” value is given as 1.96%.
For the compound `CC(=O)c1ccc(NC(=O)C2Cc3ccccc3CN2S(=O)(=O)c2cccs2)cc1` (stereo not shown), the “% Inhibition @ 10 uM” value was -0.185%.
As for `CCN(CC)C(=O)C1CCCN(Cc2ccccc2C)C1` (stereo not shown), the “% Inhibition @ 10 uM” value is on record as -0.0404%.
Regarding `CCCCCCCCP(=O)(O)c1ccccc1`, the “% Inhibition @ 10 uM” value was found to be 5.09%.
The figure for `COc1ccc(-c2nnc3sc(NC(C)=O)nn23)cc1OC` is 0.00665%.
For the compound `CCc1nn(CC(=O)NC2CCN(Cc3ccccc3)CC2)c(=O)c2cc3sccc3n12`, the “% Inhibition @ 10 uM” value stood at 3.4%.
